Measurements from publication PMC7902839.
Results are given in words; binding and its absence hold for the method and conditions named. Some results given as binding are weak or reduced against the parent protein; the word gives no strength. For some assays here: Tags and fused reporters may be left off the sequences shown. Each block holds one molecule with its values, some of them ahead of it.

By UniProt entry, the sequences of proteins in these tests, tags left out. Where a name states a change or a piece, a line headed by the entry shows the natural chain unless it says otherwise. Residues count along the entry.
UniProt Q9DC11, residues 31-455: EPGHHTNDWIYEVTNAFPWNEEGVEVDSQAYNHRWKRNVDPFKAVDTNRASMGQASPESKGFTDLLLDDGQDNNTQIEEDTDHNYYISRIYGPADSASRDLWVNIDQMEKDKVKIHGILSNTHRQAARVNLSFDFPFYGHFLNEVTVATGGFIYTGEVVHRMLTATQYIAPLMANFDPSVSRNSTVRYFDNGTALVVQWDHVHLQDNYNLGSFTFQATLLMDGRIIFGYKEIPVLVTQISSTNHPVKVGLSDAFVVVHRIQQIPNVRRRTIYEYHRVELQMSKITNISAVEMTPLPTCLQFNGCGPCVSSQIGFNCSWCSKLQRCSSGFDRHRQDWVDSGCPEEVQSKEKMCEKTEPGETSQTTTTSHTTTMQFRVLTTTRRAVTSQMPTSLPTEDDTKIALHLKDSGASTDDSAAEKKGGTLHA
UniProt Q6UX71, residues 31-454: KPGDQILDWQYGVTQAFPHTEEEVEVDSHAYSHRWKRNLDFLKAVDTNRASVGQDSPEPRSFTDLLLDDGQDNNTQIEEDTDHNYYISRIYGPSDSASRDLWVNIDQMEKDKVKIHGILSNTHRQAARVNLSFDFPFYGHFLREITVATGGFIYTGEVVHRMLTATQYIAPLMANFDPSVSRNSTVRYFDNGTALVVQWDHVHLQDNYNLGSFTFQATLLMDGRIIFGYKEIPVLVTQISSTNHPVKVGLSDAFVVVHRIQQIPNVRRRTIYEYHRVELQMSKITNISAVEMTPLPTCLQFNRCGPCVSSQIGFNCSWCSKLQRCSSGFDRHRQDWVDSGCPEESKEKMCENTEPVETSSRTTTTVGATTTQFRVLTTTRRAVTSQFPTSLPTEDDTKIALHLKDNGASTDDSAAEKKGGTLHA

Assays:
[1] = biological target: T1, human ADGRD1 (Adhesion G-protein coupled receptor D1) ectodomain (human) (UniProt Q6QNK2); experiment: AVEXIS; biotinylated monomeric baits (either purified or dialysed against PBS) immobilised on streptavidin-coated 96-well plates; pentameric beta-lactamase preys incubated one hour; washes in PBS/0.1% Tween-20; nitrocefin absorbance at 485 nm
T1 sequence (chain, biotin (enzymatic, co-transfected secreted BirA; bait form only)): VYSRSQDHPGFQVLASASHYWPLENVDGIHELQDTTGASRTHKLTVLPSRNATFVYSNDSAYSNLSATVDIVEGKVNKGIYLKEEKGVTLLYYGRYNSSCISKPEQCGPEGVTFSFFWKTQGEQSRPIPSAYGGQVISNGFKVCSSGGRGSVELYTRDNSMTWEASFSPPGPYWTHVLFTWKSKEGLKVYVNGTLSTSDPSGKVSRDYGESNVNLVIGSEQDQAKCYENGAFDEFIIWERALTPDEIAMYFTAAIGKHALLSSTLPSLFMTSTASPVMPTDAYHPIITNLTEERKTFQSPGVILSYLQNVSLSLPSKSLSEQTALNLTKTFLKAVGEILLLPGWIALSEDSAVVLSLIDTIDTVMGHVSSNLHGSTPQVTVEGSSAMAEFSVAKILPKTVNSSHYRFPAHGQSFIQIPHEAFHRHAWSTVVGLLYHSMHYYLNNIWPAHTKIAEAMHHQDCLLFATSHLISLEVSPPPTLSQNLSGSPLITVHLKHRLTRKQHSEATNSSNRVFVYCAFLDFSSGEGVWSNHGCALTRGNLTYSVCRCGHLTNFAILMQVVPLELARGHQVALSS

[2] = biological target: mouse Plxdc2 ectodomain (mouse) (UniProt Q9DC11); experiment: as above
[3] = biological target: human PLXDC2 (Plexin Domain-Containing Protein 2) ectodomain (human) (UniProt Q6UX71); experiment: as above
[4] = biological target: T2, human MRC1 ectodomain fused to human Fc (member of the single-transmembrane receptor library) (human) (UniProt P22897); experiment: AVEXIS (automated 384-well Cell Surface Receptor Interaction screen); Fc-tagged receptor ectodomains from conditioned media captured on protein A-coated 384-well plates; beta-lactamase-tagged pentameric ADGRD1 probe 1 h at room temperature; PBS with Ca2+ and Mg2+; nitrocefin hydrolysis read at 485 nm, Z-scores
T2 sequence: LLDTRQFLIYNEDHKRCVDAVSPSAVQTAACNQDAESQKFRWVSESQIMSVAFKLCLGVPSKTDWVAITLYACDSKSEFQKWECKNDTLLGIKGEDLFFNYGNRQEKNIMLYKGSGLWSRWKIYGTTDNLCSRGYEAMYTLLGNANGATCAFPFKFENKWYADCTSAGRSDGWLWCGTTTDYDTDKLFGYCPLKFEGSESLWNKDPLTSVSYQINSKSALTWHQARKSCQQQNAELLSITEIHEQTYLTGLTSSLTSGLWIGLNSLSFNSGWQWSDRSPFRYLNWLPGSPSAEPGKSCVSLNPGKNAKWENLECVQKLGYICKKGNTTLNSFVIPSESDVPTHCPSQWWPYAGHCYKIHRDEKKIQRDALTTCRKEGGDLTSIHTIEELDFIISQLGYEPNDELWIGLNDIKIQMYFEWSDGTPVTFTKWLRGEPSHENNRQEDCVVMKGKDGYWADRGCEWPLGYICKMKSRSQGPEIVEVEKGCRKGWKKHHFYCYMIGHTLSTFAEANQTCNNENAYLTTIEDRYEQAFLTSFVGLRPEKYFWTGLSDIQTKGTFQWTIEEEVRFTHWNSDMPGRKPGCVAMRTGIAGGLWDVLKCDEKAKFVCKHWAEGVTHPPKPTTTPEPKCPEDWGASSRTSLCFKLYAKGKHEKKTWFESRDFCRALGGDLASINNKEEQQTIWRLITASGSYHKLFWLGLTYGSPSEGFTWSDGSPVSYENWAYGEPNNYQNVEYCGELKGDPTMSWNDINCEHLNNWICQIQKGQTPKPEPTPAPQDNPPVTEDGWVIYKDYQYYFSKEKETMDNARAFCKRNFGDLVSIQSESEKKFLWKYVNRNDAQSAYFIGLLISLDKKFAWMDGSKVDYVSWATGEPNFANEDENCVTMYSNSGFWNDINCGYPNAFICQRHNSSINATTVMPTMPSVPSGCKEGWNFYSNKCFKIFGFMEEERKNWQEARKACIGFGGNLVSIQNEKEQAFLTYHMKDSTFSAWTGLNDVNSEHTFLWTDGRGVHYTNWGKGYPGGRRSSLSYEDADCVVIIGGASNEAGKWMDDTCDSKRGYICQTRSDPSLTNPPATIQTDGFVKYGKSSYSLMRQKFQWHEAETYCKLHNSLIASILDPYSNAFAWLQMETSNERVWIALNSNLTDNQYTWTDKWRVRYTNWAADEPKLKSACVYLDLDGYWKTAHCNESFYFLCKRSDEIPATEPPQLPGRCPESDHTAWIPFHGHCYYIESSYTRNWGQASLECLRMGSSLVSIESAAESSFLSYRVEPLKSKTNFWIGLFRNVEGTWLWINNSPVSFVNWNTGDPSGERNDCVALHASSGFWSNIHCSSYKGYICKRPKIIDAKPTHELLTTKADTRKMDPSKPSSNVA

[5] = biological target: human PLXDC2 ectodomain fused to human Fc (member of the single-transmembrane receptor library) (human) (UniProt Q6UX71); experiment: as above

binding [1]: binds
Molecule: human PLXDC2 (Plexin Domain-Containing Protein 2) ectodomain (from UniProt Q6UX71-1 31-454) (domain or fragment)

binding [2]: binds
B1: pentraxin (PTX) domain of Adgrd1, truncated ectodomain (domain or fragment, UniProt Q80T32 111-305)
chain: KGVTFLYYGTYKSSCISNPAQCGPEGVTFSFFWKTQGDQTRPAPYAYGGQVVSDGFKVCSSGGKGSVELYTRDNSMTWKATFNPPGPYWTHVLFTWKSKEGLKVYVNGTLSTSDPSGKVSHTYGDPHVNLVIGSEQDQTKRYENGAFDEFIIWERALTPDEIKMYFTAAIGKHALLSSTPPAMPTAHTVIPTDAY

binding [3]: binds | binding [4]: no binding | binding [5]: binds
B2: human ADGRD1 (Adhesion G-protein coupled receptor D1) ectodomain (domain or fragment, UniProt Q6QNK2-4 26-600)
chain: T1 sequence (chain, biotin (enzymatic, co-transfected secreted BirA; bait form only))
modifications: biotin (enzymatic, co-transfected secreted BirA; bait form only)
